Read counts are not given, so values of variants with three or more changes are uncertain.
B1: CPEB3 Ribozyme (parent)
chain: UAACAGGGGGCCACAGCAGAAGCGUUCACGUCGCAGCCCCUGUCAGAUUCUGGUGAAUCUGCGAAUUCUGCUGUAUAUCUC

Variants of: B1
Experiment: self-cleavage, relative activity (ratio to wild type); higher = more cleavage; in vitro, sequencing
In short: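 After error-prone PCR and barcoding, CPEB3 ribozyme mutant libraries were transcribed with T7 RNA polymerase at 37°C for 5 hours, then given 15 min with DNase I before an EDTA stop, and they cleaved during both steps. Reverse transcription with template switching preceded Illumina sequencing. Relative activity divides a variant's cleaved/total read fraction by the unmutated ribozyme's. At least 5 reads were required per variant, and three batches were averaged.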

| Variant | self-cleavage |
| --- | --- |
| U69A A77U U78A | 1.02 |
| U58G U69C A75G U78C | 0.19 |
| U58C C62G U67A | 0.2 |
| U67C A77G U80C | 0.29 |
| A65G C71U U72C U80C | 0.3 |
| A64G U69A U80C | 0.36 |
| U60C A65G U72A | 0.25 |
| U67C U74C U78G | 0.43 |
| C68U U72G C79A U80A | 1.2 |
| A65G C71G U72C | 0.2 |
| C62A U76A U78C | 0.16 |
| C59G G70A U78C | 0.26 |
| G63C A65G U72A | 0.37 |
| U66C U67G C71G | 0.14 |
| A65G U66C C81U | 0.22 |
| A65G U74C C81U | 0.98 |
| U60C U76C A77U | 0.73 |
| U60C A77G U78C | 0.39 |
| G61A G63A U67C | 0.31 |
| G63U A65G U66C | 0.1 |
| U60A U69A U74C | 0.41 |
| C59U C71G U72C U76A | 0.21 |
| A64G U66A U67C | 0.35 |
| U60C U78A U80A | 0.99 |

| Variant | self-cleavage |
| --- | --- |
| G63U C71A U74A U80C | 1.08 |
| A65G U72A A77U | 0.38 |
| U60A A75G U78G | 0.61 |
| U69C U72C A77U | 0.2 |
| A64U U69G U80A | 0.23 |
| U67C U72C U78C U80C | 0.24 |
| U69A U72A A77G | 0.4 |
| U60A U72C G73U C81U | 0.73 |
| U69A A75C U78C | 0.95 |
| A64U U72G A75U | 0.34 |
| C68U U69A A75U | 0.33 |
| C62U A65G U69A | 0.18 |
| A64G U66C C71G C81U | 0.22 |
| A64G U66C U67A U72C | 0.23 |
| A65G U72A U80A | 0.58 |
| U60C A64U U76A A77U | 0.24 |
| U60C U72C A75U | 0.76 |
| C62U A64U U72C U80C | 0.25 |
| U58C U66C U76A | 0.15 |
| A65U U69C U72A | 0.24 |
| U58C C62A U72C A75G | 0.35 |
| A64G U69A U76A | 0.34 |
| U60A A64G U67C | 0.35 |
| U58G U74C C81U | 0.79 |

| Variant | self-cleavage |
| --- | --- |
| U60A A64U A65G U72A | 0.36 |
| G63A A65U U67C G73U | 0.65 |
| C62U U67A C71U | 0.23 |
| G63A U66C U69C | 0.27 |
| U66A U76C U80C | 0.49 |
| C68G U72C U78C | 0.42 |
| U60A A65G G73A | 0.56 |
| U69C C71U U72C | 0.28 |
| A64G G70A C81U | 0.38 |
| A65G U69C U74C U78C | 0.34 |
| G63A A65G U69A | 0.34 |
| U67A U72C G73U | 0.69 |
| U60C U69A U72A | 0.32 |
| C68G A75U C81U | 0.45 |
| A64G U80C C81U | 1.06 |
| G61A U66A U74C | 0.38 |
| U66C U72C U74A | 0.63 |
| U60C U69C U72C U80A | 0.4 |
| G63A A65G U69A U74A | 0.26 |
| G63C A64C U69A U78A | 0.22 |
| U60C A65C U72A | 0.19 |
| C62A G73C U76C | 0.14 |
| A65G U66C U69C | 0.12 |
| U67C U78A U80C | 0.3 |

| Variant | self-cleavage |
| --- | --- |
| A64G U66C A77G | 0.25 |
| U60C U67C U72A | 0.34 |
| U60C U67C U78C | 0.28 |
| A64G A77G U78C | 0.46 |
| U60C U72A A75G | 0.49 |
| A65C U69A U80A | 0.37 |
| U58C U60A U66C | 0.16 |
| U66G U78C U80C | 0.25 |
| C62A U66C U78A | 0.14 |
| U58C U67C U69A | 0.2 |
| A65G U69C U72A U76C | 0.18 |
| U69C U72C U74C | 0.44 |
| A64G A65G U69C U72A A77G | 0.3 |
| U67C U72C U76C | 0.26 |
| U60A U67C U69A U80C | 0.36 |
| U66C U72G A77U | 0.36 |
| U60C C71U A77U | 0.43 |
| U66G U67C C81A | 0.24 |
| A64G U66C U76A A77G | 0.15 |
| U58C U60A U80A | 0.21 |
| C62A U69C U74C | 0.3 |
| U58C U60C U80C | 0.19 |
| U60C U66C U80C | 0.18 |
| U66C C79U U80C | 0.31 |

| Variant | self-cleavage |
| --- | --- |
| G63A U72C U74C | 1.17 |
| A65U U67C U74C U80A | 0.23 |
| U58C G63A U78A | 0.63 |
| U69C A75U U78C | 0.53 |
| A65G U78C U80C | 0.21 |
| C59U U69C U80C | 0.35 |
| G61A U66C U67A U80C | 0.21 |
| U66A U76C U78G | 0.54 |
| U60A U67C U69G A75G U78C | 0.47 |
| C62U U69A A75U U76A | 0.27 |
| A64G U74C A75U | 1.32 |
| A65G A75U C79U | 0.68 |
| U60A A64U A65G | 0.26 |
| U60A A64G U72C | 0.33 |
| A65G U67A G73U | 0.2 |
| A65G A77G U78C | 0.19 |
| U60A A65G U72A | 0.35 |
| C62U A65U U67A | 0.35 |
| A64G U74A C79U | 1.2 |
| U60A U66A G73A U74C | 0.38 |
| U67A U78C U80C | 0.3 |
| U60G C62U U78C | 0.2 |
| G63U U72C U78C | 1.22 |
| C62U A65G U78A | 0.15 |

| Variant | self-cleavage |
| --- | --- |
| U60C U72C C79A | 1.23 |
| C68U U72G U80C | 1.11 |
| C62U U72C A75G | 0.21 |
| U60A A64G U78C | 0.4 |
| C59G U60C U78C | 0.19 |
| A65G U67C U78C | 0.22 |
| A65G U67C U78G | 0.21 |
| A65U U76C U78C | 0.23 |
| U60G A65G A75U | 0.29 |
| U60C U74A U80C | 0.83 |
| A64G A65G U69G C71U U72C | 0.18 |
| G61U U80C C81U | 0.93 |
| U60A U66C U80C | 0.28 |
| U60C G63U U66C | 0.2 |
| U60C U69G U72A A75G | 0.11 |
| C59G U60C A75G | 0.12 |
| C62A G73A U80C | 0.14 |
| A65G U74A C79A | 1.05 |
| C59A U78A C79A | 0.72 |
| U58C U60C U66A U80C | 0.21 |
| C62U A75G U80C | 0.47 |
| C62U U76C U78C | 0.21 |
| U60C U69C U78C | 0.33 |
| U58C A65G A75U U80C | 0.24 |

| Variant | self-cleavage |
| --- | --- |
| C68A U74C U80C | 0.67 |
| G63C U67C U74C | 0.25 |
| U66C U69G U72C | 0.29 |
| A64U U69A U78C U80A | 0.45 |
| U60C U67A A77G | 0.25 |
| U58C U60A U69C | 0.27 |
| U58C C59G U60C | 0.21 |
| U58C U60A A64U U72A A75U U80A | 0.27 |
| G63C A65U U66C U69A | 0.27 |
| U60A U67A U72A A75G | 0.26 |
| C59A C62U U72C | 0.06 |
| U66C U67C U80C | 0.15 |
| G61A C62A U72A | 0.44 |
| U60C U66C A75U U76C | 0.32 |
| A65G U66C G73A | 0.18 |
| A65G U66C G73C | 0.26 |
| G61A G70U U76A | 0.2 |
| G63A A65G U67C | 0.43 |
| C62A U66C G70U U72G U80C | 0.06 |
| U60C A75G U78C | 0.29 |
| U58C U60A A64U U69C C81U | 0.16 |
| U67C A77G C81U | 0.36 |
| G61A A75G A77U | 0.61 |

— the RNAGym collection of RNA variant scans (doi:10.1093/nar/gkz1192)
